From the supplement of paper PMC4967469
Lines with a small IC50 respond at low doses; a fit beyond the top or the lowest dose is shown as a bound at that dose. The AUC spans the tested range (256-fold, ending at the top dose) of the same fit; values near 1 show little effect. For part of these data: Any top dose called inferred is not printed in the source and was worked back from the curve model. For part of these data: Where an entry number is given, a second screen of the drug exists; the two often differ.

What was measured:
Assay in all cases: Viability of human cancer cell lines after 72 h of drug (GDSC screen)
NVP-TAE684 = compound: COc1cc(N2CCC(N3CCN(C)CC3)CC2)ccc1Nc1ncc(Cl)c(Nc2ccccc2S(=O)(=O)C(C)C)n1 [NVP-TAE684]; details: top dose 2 µM
Method: (§1)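 Human cancer cell lines in 384-well plates, medium with 10% serum, drug for 72 h over a 256-fold dose range (nine 2-fold or five 4-fold steps up to the top dose). Adherent lines were fixed and stained with the nucleic acid dye Syto60, suspension lines read with resazurin; signal relative to control wells, capped at 0 and 100%. One two-parameter sigmoid per drug and line, fitted in a mixed model over all curves with the slope shared within a line.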

CGP-60474 = compound: OCCCNc1cc(-c2ccnc(Nc3cccc(Cl)c3)n2)ccn1 [CGP-60474]; details: top dose 0.256 µM; top dose inferred
Method: as §1

Docetaxel = compound: CC(=O)O[C@@]12CO[C@@H]1C[C@H](O)[C@@]1(C)C(=O)[C@H](O)C3=C(C)[C@@H](OC(=O)[C@H](O)[C@@H](NC(=O)OC(C)(C)C)c4ccccc4)C[C@@](O)([C@@H](OC(=O)c4ccccc4)[C@H]21)C3(C)C [Docetaxel]; details: top dose 0.0125 µM
Method: as §1

FTI-277 = compound: COC(=O)[C@H](CCSC)NC(=O)c1ccc(NC[C@@H](N)CS)cc1-c1ccccc1 [FTI-277]; details: top dose 1.024 µM; top dose inferred
Method: as §1

JNK Inhibitor VIII = compound: CCOc1nc(NC(=O)Cc2cc(OC)ccc2OC)cc(N)c1C#N [JNK Inhibitor VIII]; details: top dose 10 µM; top dose inferred
Method: as §1

Belinostat = compound: O=C(/C=C/c1cccc(S(=O)(=O)Nc2ccccc2)c1)NO [Belinostat]; details: top dose 20 µM; top dose inferred
Method: as §1

NSC-207895 = compound: CN1CCN(c2ccc([N+](=O)[O-])c3no[n+]([O-])c23)CC1 [NSC-207895]; details: top dose 20 µM; top dose inferred
Method: as §1

JNJ-26854165 = compound: c1ccc2c(CCNc3ccc(Nc4ccncc4)cc3)c[nH]c2c1 [JNJ-26854165]; details: top dose 10 µM
Method: as §1

OSI-906 = compound: C[C@]1(O)C[C@@H](c2nc(-c3ccc4ccc(-c5ccccc5)nc4c3)c3c(N)nccn32)C1 [OSI-906]; details: top dose 2.56 µM; top dose inferred
Method: as §1

SB-715992 = compound: Cc1ccc(C(=O)N(CCCN)[C@@H](c2nc3cc(Cl)ccc3c(=O)n2Cc2ccccc2)C(C)C)cc1 [SB-715992]; details: top dose 0.128 µM; top dose inferred
Method: as §1

YM155 = compound: COCC[n+]1c2c(n(Cc3cnccn3)c1C)C(=O)c1ccccc1C2=O [YM155]; details: top dose 5.12 µM
Method: as §1

Cyclopamine = compound: CC1=C2C[C@H]3[C@@H](CC=C4C[C@@H](O)CC[C@@]43C)[C@@H]2CC[C@]12O[C@@H]1C[C@H](C)CN[C@H]1[C@H]2C [Cyclopamine]; details: top dose 16 µM; top dose inferred
Method: as §1

AMG-706 = compound: CC1(C)CNc2cc(NC(=O)c3cccnc3NCc3ccncc3)ccc21 [AMG-706]; details: top dose 2 µM; top dose inferred
Method: as §1

JQ1 = compound: Cc1sc2c(c1C)C(c1ccc(Cl)cc1)=N[C@@H](CC(=O)OC(C)(C)C)c1nnc(C)n1-2 [JQ1]
Method: as §1

[1] = top dose 1 µM, screen: GDSC drug entry 1218, top dose inferred
[2] = top dose 2.56 µM, screen: GDSC drug entry 163

Cell Line | AUC (NVP-TAE684) | IC50 (NVP-TAE684) [nM] | AUC (CGP-60474) | IC50 (CGP-60474) [nM] | AUC (Docetaxel) | IC50 (Docetaxel) [nM] | AUC (FTI-277) | IC50 (FTI-277) [nM] | AUC (JNK Inhibitor VIII) | IC50 (JNK Inhibitor VIII) [nM] | AUC (Belinostat) | IC50 (Belinostat) [nM] | AUC (NSC-207895) | IC50 (NSC-207895) [nM] | AUC (JNJ-26854165) | IC50 (JNJ-26854165) [nM] | AUC (OSI-906) | IC50 (OSI-906) [nM] | AUC (SB-715992) | IC50 (SB-715992) [nM] | AUC (YM155) | IC50 (YM155) [nM] | AUC (Cyclopamine) | IC50 (Cyclopamine) [nM] | AUC (AMG-706) | IC50 (AMG-706) [nM] | AUC (JQ1; [1]) | IC50 (JQ1; [1]) [nM] | AUC (JQ1; [2]) | IC50 (JQ1; [2]) [nM]
SU-DHL-16 (B-cell lymphoma, suspension) | 0.9 | 1310 | 0.691 | 46.5 | 0.894 | 7.85 | 0.995 | > 1020 | 0.994 | > 10000 | 0.008 | < 78.1 | 0.79 | 6430 | 0.98 | > 10000 | 0.992 | > 2560 | 0.73 | 28.9 | 0.007 | < 20 | 0.992 | > 16000 | 0.996 | > 2000 | 0.994 | > 1000 | 0.468 | 134
SUP-M2 (anaplastic large cell lymphoma, suspension) | 0.144 | 14.9 | 0.479 | 14.2 | 0.753 | 3.33 | 0.994 | > 1020 | 0.989 | > 10000 | 0.162 | 170 | 0.841 | 9390 | 0.9 | 7420 | 0.994 | > 2560 | 0.567 | 11.6 | 0.012 | < 20 | 0.993 | > 16000 | 0.994 | > 2000 | 0.992 | > 1000 | 0.916 | 2200
SW962 (urogenital system, adherent) | 0.8 | 1250 | 0.627 | 39 | 0.724 | 3.99 | 0.936 | > 1020 | 0.975 | > 10000 | 0.468 | 1000 | 0.872 | > 20000 | 0.918 | > 10000 | 0.868 | > 2560 | 0.946 | > 128 | 0.038 | < 20 | 0.972 | > 16000 | 0.922 | > 2000 | 0.926 | > 1000 | 0.839 | 2410
TE-1 (oesophagus, adherent) | 0.732 | 697 | 0.83 | 223 | 0.675 | 2.76 | 0.954 | > 1020 | 0.938 | > 10000 | 0.939 | > 20000 | 0.981 | > 20000 | 0.942 | > 10000 | 0.754 | 1080 | 0.935 | > 128 | 0.514 | 353 | 0.966 | > 16000 | 0.982 | > 2000 | 0.959 | > 1000 | 0.85 | > 2560
